Experimental data taken from publication PMC4336329 (PLoS ONE, 2015).
Hit rate of the full screen: of about 310,000 compounds, about 14,000 (4.5%) showed an effect of 50% or more. Effects have a minus sign here. The list shows a part of the results.

Each compound was assayed against human ether-à-go-go-related gene (hERG) potassium channel (human, UniProt Q12809) (assay: primary screen, population patch clamp on CHO cells stably expressing hERG).
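Also: peak tail current of the secondary pulse compared with the same well before compound.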

human ether-à-go-go-related gene (hERG) potassium channel, sequence (Q12809 whole entry, looked up): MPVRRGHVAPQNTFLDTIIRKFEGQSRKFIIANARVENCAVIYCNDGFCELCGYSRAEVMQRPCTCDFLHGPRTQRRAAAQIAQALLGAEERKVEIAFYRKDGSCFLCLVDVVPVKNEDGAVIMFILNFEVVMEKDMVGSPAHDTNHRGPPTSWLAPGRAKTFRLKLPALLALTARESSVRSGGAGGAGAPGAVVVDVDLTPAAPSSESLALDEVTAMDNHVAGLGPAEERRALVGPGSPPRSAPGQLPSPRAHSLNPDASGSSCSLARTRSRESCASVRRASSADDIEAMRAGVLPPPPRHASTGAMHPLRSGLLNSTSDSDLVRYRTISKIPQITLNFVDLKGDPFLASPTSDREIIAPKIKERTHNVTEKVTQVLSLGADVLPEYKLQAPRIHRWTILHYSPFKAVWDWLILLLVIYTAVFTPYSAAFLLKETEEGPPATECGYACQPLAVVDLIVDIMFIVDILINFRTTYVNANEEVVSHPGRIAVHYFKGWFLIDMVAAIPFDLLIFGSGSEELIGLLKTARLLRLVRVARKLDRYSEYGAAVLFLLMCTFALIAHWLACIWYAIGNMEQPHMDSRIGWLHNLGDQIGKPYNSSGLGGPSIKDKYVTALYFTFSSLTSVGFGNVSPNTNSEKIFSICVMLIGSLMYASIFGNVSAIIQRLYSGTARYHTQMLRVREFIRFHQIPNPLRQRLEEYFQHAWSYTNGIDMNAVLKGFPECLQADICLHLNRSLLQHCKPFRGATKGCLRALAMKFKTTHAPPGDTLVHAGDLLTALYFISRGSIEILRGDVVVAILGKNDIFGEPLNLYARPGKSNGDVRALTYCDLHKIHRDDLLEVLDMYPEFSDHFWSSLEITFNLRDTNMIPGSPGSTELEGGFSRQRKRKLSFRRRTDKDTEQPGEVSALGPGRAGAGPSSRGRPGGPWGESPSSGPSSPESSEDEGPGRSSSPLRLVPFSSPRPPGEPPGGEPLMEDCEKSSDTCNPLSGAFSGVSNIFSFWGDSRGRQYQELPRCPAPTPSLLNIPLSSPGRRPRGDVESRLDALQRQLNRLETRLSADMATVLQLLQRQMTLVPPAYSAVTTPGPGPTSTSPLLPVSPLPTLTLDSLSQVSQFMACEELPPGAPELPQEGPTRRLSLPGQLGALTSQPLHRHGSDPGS

Compound	hERG current change (%, negative = inhibition) at 10uM [%]
Cn1c(=O)[nH]c(=O)c2c1nc(N1CCCCC1)n2C/C=N/Nc1ccc(C(=O)O)cc1	7.95
CC(C)c1ccc(N2C(=O)C3C4C=CC(CC4)C3C2=O)cc1 (stereo not shown)	20.2
N/C(Cc1ccc(Cl)cc1Cl)=N\OC(=O)c1ccccc1F	-27.4
Cc1ccc(Cn2c(C(C)Nc3nc(-c4ccc(F)cc4)cs3)nc3cc(C(=O)NCCCO)ccc32)cc1 (stereo not shown)	-2.66
CN(C)c1ccc(C=NCCC2(O)CCOC(C)(C)C2)cc1 (stereo not shown)	9.28
CCc1ccc(CNC(=O)C2CCCN(c3nc4ccccc4o3)C2)cc1 (stereo not shown)	-11
O=C1C(=O)N(Cc2cccnc2)C(c2cccc([N+](=O)[O-])c2)/C1=C(/O)c1ccc2c(c1)OCO2 (stereo not shown)	13
CCOCCCNC(=O)c1ccc(CS(=O)(=O)Cc2cccc(C)c2)o1	9.45
O=C(N/C(=C/c1ccccc1)C(=O)N1CCCCC1)c1ccccc1	29.9
COc1ccc(N2CCN(c3cc(C)c4cccc(C)c4n3)CC2)cc1	22.7
COC(=O)C(CC(C)C)NC(=O)c1ccc([N+](=O)[O-])cc1 (stereo not shown)	-23.2
COc1cc(C(=O)N2CCN(S(=O)(=O)c3ccc(C)cc3)CC2)ccc1OCc1c(C)noc1C	-21
Cc1cc(C(=O)NC2CCCCC2)c(C)n1-c1ccc(F)cc1	-6.06
C/C(=N\NC(=O)c1cc(C)nc2ccccc12)c1ccc([N+](=O)[O-])cc1	-11.7
COc1cc(C2NC(=O)NC(C)=C2C(C)=O)cc(OC)c1OC (stereo not shown)	9.41
CCOC(=O)c1cccc(Nc2nc(-c3cccnc3)nc3ccccc23)c1.Cl	-6.06
Cc1c(/C=N/Nc2ccc([N+](=O)[O-])cn2)c2ccccc2n1Cc1ccccc1	20.4
CCCNc1nc(Cl)nc(NC(C)(C)C)n1	-0.3
COC(=O)[C@@H]1C[C@H]1[C@@H](NC(=O)c1ccccc1)c1ccccc1	-11.9
Cc1nn(C)cc1C(=O)/C=C/c1ccc([N+](=O)[O-])cc1	-12.4
CCCCn1nc(NC(=O)CC(C)C)c2cc3cc(OC)ccc3nc21	12.1
CN(C)S(=O)(=O)c1ccc(C(=O)/C=C/c2cccnc2)cc1	2.22
N=C1C(c2nc3ccccc3c(=O)[nH]2)=C(O)CN1CCc1ccccc1	12
CN1CCN(C(=O)C2=C[C@@H](c3coc4ccccc4c3=O)C[C@@H](OCc3ccc(CO)cc3)O2)CC1	-22.5
CC1CCc2c(sc(NC(=O)c3ccco3)c2C(=O)O)C1 (stereo not shown)	30.3
COc1ccc(-c2noc(CCCC(=O)NCC3CCCO3)n2)cc1 (stereo not shown)	15
O=C(c1c(Cl)cccc1Cl)N1CCN(c2ncccn2)CC1	11.9
Cn1cc(/C=N/Nc2ccccc2)c2ccccc21	15.4

Compound	hERG current change (%, negative = inhibition) at 10uM [%]
CCOC(=O)c1cnc(SC)nc1Oc1cccc(NS(=O)(=O)c2ccc(C)cc2)c1	-6.83
CN(C)c1ccc(S(=O)(=O)N2CCCCC2)cc1NC(=O)COc1ccccc1F	-5.89
COc1ccc(CC(=O)Nc2ccccc2C(=O)N2CCOCC2)cc1OC	19.9
N#CCSc1nnc(N)s1	4.55
Cc1cccc(C(=O)Nc2ccccc2C(=O)NCc2ccco2)c1	-26.3
CC(C)(C)OC(=O)[C@H](Cc1ccccc1)NC(=O)c1nc[nH]c1C(=O)N1CCN(C(=O)OC(C)(C)C)CC1	-18.2
O=C(O)c1cccc(CSc2ncn[nH]2)c1	1.15
O=C(O)c1c(Cl)c(Cl)c(Cl)c(Cl)c1C(=O)N1CCOCC1	19.2
O=C1CSC(=Nc2ccc(Cl)cc2)N1Cc1cccnc1	-5.63
O=C(N/N=C/c1c[nH]c2ccccc12)C1COc2ccccc2O1 (stereo not shown)	-5.33
COC(=O)C(CC(C)C)NC(=O)c1cccs1 (stereo not shown)	16
O=C(Cc1cccs1)Nc1nnc(-c2ccc(F)cc2)s1	5.75
Cc1nc(=O)c(-c2ccccc2)c(C)n1-c1cccc(C(=O)O)c1	9.23
O=C(CSc1nnc(C2CCCCC2)n1-c1ccccc1)NCc1ccco1	-21.4
COC(=O)c1ccc(C(=O)OC)c(NC(=O)C2CCCO2)c1 (stereo not shown)	10.5
Cc1cccc(-n2nnnc2SCC(=O)Nc2ccc(N3CCN(C)CC3)cc2)c1	-55
CCOC(=O)c1c(NC(=O)c2ccc(Cl)s2)sc(C)c1C	13.4
Cc1ccc2c(c1)N(CC(=O)OC(CC(C)C)C(=O)NC1CCCC1)C(=O)CO2 (stereo not shown)	-47.4
Cc1ccc(C(=O)Cn2c(-c3ccccc3)noc2=O)cc1	-12.5
CCCn1nc(NC(=O)c2cccs2)c2cc3cccc(C)c3nc21	-30.1
CSc1ccc(C(=O)N2CCC(CCC(=O)NC3CC3)CC2)cc1	-30.8
CCn1c(=S)sc2c(=O)n(CC(=O)Nc3ccc(Cl)cc3)c(C)nc21	15.3
O=C(Nc1ccc2c(c1)CCC2)Nc1ccc2c(c1)OCO2	6.88
CC1O[C@@H](O[C@H](C)CC[C@@H](C)O)C(O)C[C@H]1O (stereo partly shown)	8.55
O=C1[C@@H]2[C@@H]3C[C@@H]([C@H]4ON=C(c5ccc(Cl)cc5)[C@@H]34)[C@@H]2C(=O)N1c1ccc2c(c1)OCO2	-9.76
COc1ccc(C(=O)N2CCC(C(=O)N3CCN(c4ccc(OC)cc4)CC3)CC2)cc1	-43.5
CCOC(=O)c1[nH]ncc1CN1CCC(Cc2cccc(OC)c2)(C(=O)OCC)CC1	-37.6
